# PubChem BioAssay (Tox21)
# “And” between values parts separate entries of the source, which are not always exact repeats. Equal entries are not always repeated. The shares of active, inactive and inconclusive entries below differ from those in the screen. A potency beside an inconclusive call is a rough fit, not a confirmed value. Some compounds were tested as several samples or in several runs, with calls that do not always agree. The source made the active and inactive calls. Unless noted, calls come from the whole dose curve; as a rule, active = well fitted curve in the direction sought with a large enough effect in the repeat runs; inconclusive = weak or mixed curves; inactive = no such curve, though single readings can be large; an effect the other way counts as inactive or inconclusive.
# Tested on: not listed separately
# Test: qHTS assay to identify small molecule antagonists of the estrogen receptor alpha (ER-alpha) signaling pathway using the BG1 cell line (AID 743080; calls by dose curve;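 note: BG1 cells stimulated with 17beta-estradiol alongside compound; nearly all actives have a fitted effect of over 25% in size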; for activity change, negative = inhibition: % is set by controls: 0 for no effect and ±100 for the full control effect)
# Settings: BG1Luc4E2 ERE-luciferase antagonist mode, luminescence; activity change, negative = inhibition: at 70.3 µM (top of the series) unless noted
# Procedure, shortened: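 BG1Luc4E2, endogenous ER-alpha, 4xERE-luc; 5 d charcoal-stripped FBS, phenol red free; 24 h plating; cpd + 17beta-estradiol 21.5 h, 37 C/5% CO2; CellTiter-Fluor viability 30 min, then ONE-Glo luciferase 30 min RT.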
# Potency is the fitted concentration of half-maximal effect; tags give direction and shape of the fitted curve.
SMILES,"activity change, negative = inhibition",Potency
Oc1cc(Cl)cc(Cl)c1,inactive: 0.988% [at 95 µM],
CC1(C)C(C=C(Cl)Cl)C1C(=O)OC(C#N)c1cccc(Oc2ccccc2)c1 (centres undefined),,inactive
CCCCCCCCCCCCCCC(Br)C(=O)O (centres undefined),inconclusive: -22.6%,
O=c1ssc(Cl)c1Cl,inactive: -24.8%,
Cc1ccc2cc3c(ccc4ccccc43)c3c2c1CC3,,active: 0.546 µM
Oc1ccc(-c2ccccc2)cc1,,"inconclusive: 30.2 µM [rising, partial curve] and inconclusive: 24.3 µM [rising, partial curve]"
CCC[CH2][Sn]([CH2]CCC)([O]C(C)=O)[O]C(C)=O,,"inconclusive: 13.8 µM [falling, full curve]"
CC(=O)c1cc(C(C)(C)C)cc2c1CCC2(C)C,,"inconclusive: 30.6 µM [falling, partial curve, poor fit]"
c1ccc2c(c1)[nH]c1cnccc12,inactive: -11.1%,
CC(C)CC(C)Nc1ccc(Nc2ccccc2)cc1 (centres undefined),,"inconclusive: 60.1 µM [falling, partial curve]"

# Tested on: not listed separately
# Test: qHTS assay to identify small molecule antagonists of the estrogen receptor alpha (ER-alpha) signaling pathway using the BG1 cell line - cell viability counter screen (AID 743081);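 note: compound given together with 17beta-estradiol as the ER stimulus; nearly all actives have a fitted effect of over 45% in size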; for activity change, negative = cytotoxicity: % is set by controls: 0 for no effect and ±100 for the full control effect
# Settings: BG1Luc4E2 viability, CellTiter-Fluor, 22 h; series mostly up to 70.3 µM; activity change, negative = cytotoxicity: at the top concentration
row,SMILES,Potency
1,[Cl-].[Cl-].[Hg+2],"inconclusive: 33.5 µM [cytotoxic, single point] and active: 54.2 µM"
2,O=c1ssc(Cl)c1Cl,"inconclusive: 68.6 µM [cytotoxic, partial curve, poor fit]"
3,Nc1ccccc1C(=O)OCCc1ccccc1,inactive
4,Cc1c(COC(=O)[C@@H]2[C@H](/C=C(\Cl)C(F)(F)F)C2(C)C)cccc1-c1ccccc1,"inconclusive: 67 µM [cytotoxic, partial curve, poor fit]"
5,[Cd+2].[Cl-].[Cl-],"inconclusive: 61.6 µM [cytotoxic, single point] and inconclusive: 68.6 µM [cytotoxic, single point]"
6,Cn1c(CCCC(=O)O)nc2cc(N(CCCl)CCCl)ccc21,active: 1.06 µM
7,CCCCCCCCCC(CC)c1ccc(S(=O)(=O)O)cc1 (centres undefined),"inconclusive: 68.6 µM [cytotoxic, partial curve, poor fit]"
8,CCC[CH2][Sn]([CH2]CCC)([O]C(C)=O)[O]C(C)=O,"inconclusive: 13.8 µM [cytotoxic, full curve]"
9,O=Cc1ccccc1,"inconclusive: 2.98 µM [cytotoxic, full curve, poor fit]"
10,CC(C)CC(C)Nc1ccc(Nc2ccccc2)cc1 (centres undefined),active: 53.5 µM

# Biological target: Aromatase (Homo sapiens) (UniProt P11511)
# Sequence of UniProt P11511 (P11511 whole entry, looked up): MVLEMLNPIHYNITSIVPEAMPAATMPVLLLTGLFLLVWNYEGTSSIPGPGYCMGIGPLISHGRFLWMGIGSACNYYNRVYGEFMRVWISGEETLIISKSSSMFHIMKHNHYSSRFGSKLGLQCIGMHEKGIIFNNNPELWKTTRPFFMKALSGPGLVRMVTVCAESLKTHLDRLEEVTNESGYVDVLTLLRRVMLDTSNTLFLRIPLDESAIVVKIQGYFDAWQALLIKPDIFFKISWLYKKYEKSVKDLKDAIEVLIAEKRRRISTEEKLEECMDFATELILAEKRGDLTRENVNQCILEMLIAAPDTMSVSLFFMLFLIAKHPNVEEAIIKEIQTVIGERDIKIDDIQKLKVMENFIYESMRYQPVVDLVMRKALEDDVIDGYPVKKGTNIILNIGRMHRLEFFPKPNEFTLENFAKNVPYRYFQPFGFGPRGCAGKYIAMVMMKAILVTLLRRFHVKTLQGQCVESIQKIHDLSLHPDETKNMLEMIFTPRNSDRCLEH
# Test: qHTS assay to identify aromatase inhibitors (AID 743083); note: nearly all actives have a fitted effect of over 55% in size
# Settings: MCF-7 aro ERE, testosterone-driven ERE luciferase, 24 h; series mostly up to 70.3 µM; activity, negative = inhibition: at the top concentration
row,SMILES,Potency
1,Oc1cc(Cl)cc(Cl)c1,"inconclusive: 55 µM [inhibitor, single point]"
2,Clc1ccc(C(Cl)(Cl)Cl)c(Cl)c1,"inconclusive: 30.9 µM [inhibitor, partial curve]"
3,[Cl-].[Cl-].[Hg+2],active: 13.3 µM and active: 1.36 µM and active: 15.4 µM
4,Nc1ccccc1C(=O)OCCc1ccccc1,"inconclusive: 43.5 µM [inhibitor, partial curve, poor fit] and inconclusive: 24.3 µM [inhibitor, partial curve, poor fit]"
5,CC(Cc1ccc(C(C)(C)C)cc1)CN1C[C@@H](C)O[C@@H](C)C1 (some centres undefined),"inconclusive: 68.6 µM [inhibitor, single point]"
6,Cc1ccc2cc3c(ccc4ccccc43)c3c2c1CC3,"inconclusive: 0.0487 µM [inhibitor, full curve, poor fit]"
7,CCC[CH2][Sn]([CH2]CCC)([O]C(C)=O)[O]C(C)=O,active: 15.5 µM
8,CC(=O)c1cc(C(C)(C)C)cc2c1CCC2(C)C,active: 68.6 µM
9,Cc1cccc(Cc2cnc[nH]2)c1C,"inconclusive: 33.5 µM [inhibitor, partial curve, poor fit]"
10,CC(C)CC(C)Nc1ccc(Nc2ccccc2)cc1 (centres undefined),active: 53.5 µM
11,CCOP(=S)(OCC)OC(Cl)C(Cl)(Cl)Cl (centres undefined),"inconclusive: 61.1 µM [inhibitor, single point]"

# Tested on: not listed separately
# Test: qHTS assay to identify aromatase inhibitors - cell viability counter screen (AID 743084);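 note: cells stimulated with testosterone during compound exposure; nearly all actives have a fitted effect of over 55% in size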; for activity change, negative = cytotoxicity: % is set by controls: 0 for no effect and ±100 for the full control effect
# Settings: MCF-7 aro ERE viability, CellTiter-Fluor, 24 h; series mostly up to 70.3 µM; activity change, negative = cytotoxicity: at the top concentration
SMILES,"activity change, negative = cytotoxicity",Potency
Oc1cc(Cl)cc(Cl)c1,inactive: -20.2% [at 95 µM],
[Cl-].[Cl-].[Hg+2],,active: 10.6 µM and active: 1.08 µM and active: 12.2 µM
Clc1ccc(-c2ccc(Cl)c(Cl)c2Cl)c(Cl)c1Cl,inactive: 3.25%,
CN(C)[C@@H]1C(=O)C(C(N)=O)=C(O)[C@@]2(O)C(=O)C3=C(O)c4c(O)cccc4[C@@](C)(O)[C@H]3C[C@@H]12,,"inconclusive: 38.7 µM [rising, partial curve]"
Nc1ccccc1C(=O)OCCc1ccccc1,,"inconclusive: 68.9 µM [cytotoxic, single point]"
CC(Cc1ccc(C(C)(C)C)cc1)CN1C[C@@H](C)O[C@@H](C)C1 (some centres undefined),,"inconclusive: 68.6 µM [cytotoxic, single point]"
[Cd+2].[Cl-].[Cl-],,"inconclusive: 61.1 µM [cytotoxic, single point]"
CCCCCCCCCc1ccc(O)cc1,,active: 55 µM
CC(=O)c1cc(C(C)(C)C)cc2c1CCC2(C)C,,"inconclusive: 68.6 µM [cytotoxic, single point]"
CCCCCCCCCC[N+](C)(C)CCCCCCCCCC,,active: 21.1 µM and active: 61.1 µM
CS(=O)(=O)c1ccc(C(=O)C2C(=O)CCCC2=O)c([N+](=O)[O-])c1,,"inconclusive: 69.8 µM [rising, single point]"
CC(C)CC(C)Nc1ccc(Nc2ccccc2)cc1 (centres undefined),,active: 47.7 µM
CN(C)C(=S)S,,active: 14 µM and active: 764 nM and active: 4.86 µM
